± gives the standard deviation of the averaged measurements. Over roughly 33,000 sequences, “E-score (dimensionless, -0.5 to 0.5)” has its median near -0.046; the highest 2% begin near 0.36. The list shows a part of the results.
What follows are sequences tested on T1, SpTbr T-box DNA-binding domain (GST fusion) (assay: PBM E-score of 8-mer (E-score (dimensionless, -0.5 to 0.5)); Tbr is Tbrain of the sea star Patiria miniata (Pm) or the sea urchin Strongylocentrotus purpuratus (Sp); higher = stronger binding preference; most listed sequences are background and not binding sites). Settings: the construct has about 5 more residues each side.
T1 sequence: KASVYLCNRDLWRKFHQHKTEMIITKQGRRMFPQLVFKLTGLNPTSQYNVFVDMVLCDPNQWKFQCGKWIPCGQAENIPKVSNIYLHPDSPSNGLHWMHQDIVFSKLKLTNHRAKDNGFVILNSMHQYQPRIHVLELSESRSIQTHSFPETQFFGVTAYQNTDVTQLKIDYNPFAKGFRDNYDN
How it was run: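 Primer extension turned Universal Agilent oligonucleotide arrays double-stranded. They were incubated with 200 nM protein in PBS (pH 7.5); the protein was a GST-fused Tbr T-box DNA-binding domain expressed in BL21 E. coli at 20 °C and purified on glutathione. Every ungapped 8-mer was scored from the scanned, quantified probe intensities, and the Universal PBM Analysis Suite gave each an enrichment E-score averaged over duplicate arrays.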

| Sequence | PBM E-score of 8-mer |
| --- | --- |
| GGAAATTA | -0.269 ± 0.011 |
| TACTCAGA | 0.0139 ± 0.058 |
| ATTAGAGC | -0.25 ± 0.057 |
| ACATCGAT | -0.0175 ± 0.055 |
| ACTAAGGA | -0.291 ± 0.034 |
| TCGCCCGA | -0.0252 ± 0.06 |
| CGGATAGC | 0.0476 ± 0.07 |
| CCGTCAAA | 0.179 ± 0.079 |
| GATTTGAA | -0.13 ± 0.068 |
| GAGAGCCC | -0.055 ± 0.00096 |
| ACAGTCTG | -0.0797 ± 0.05 |
| GAGCCAGA | -0.187 ± 0.076 |
| TACGATAA | 0.0515 ± 0.0021 |
| CAAATTTC | -0.0243 ± 0.048 |
| AACTCGCT | -0.0393 ± 0.016 |
| AGCTCGCA | 0.272 ± 0.011 |
| GACCACTC | 0.0231 ± 0.029 |
| ACATACCG | 0.00128 ± 0.051 |
| AGCATCAT | -0.23 ± 0.027 |
| AAAGGAAG | -0.0477 ± 0.021 |
| GCCTGATA | -0.252 ± 0.072 |
| CTCGCGAA | 0.389 ± 0.012 |
| GTACCTCA | 0.149 ± 0.0072 |
| CTAGGCAC | 0.0675 ± 0.011 |
| GGTAATTA | -0.0737 ± 0.011 |

| Sequence | PBM E-score of 8-mer |
| --- | --- |
| GACATGAC | 0.0522 ± 0.028 |
| CCGAATTC | -0.158 ± 0.018 |
| AAGCTCTA | -0.245 ± 0.027 |
| ATCACGGG | 0.0563 ± 0.045 |
| CGACGGCA | 0.0431 ± 0.011 |
| GGAAGTAA | -0.0859 ± 0.036 |
| CGCTGGAA | 0.0154 ± 0.026 |
| ACCATGTC | -0.0105 ± 0.024 |
| CGGTTTTA | -0.0564 ± 0.011 |
| CATTCCCC | -0.0829 ± 0.059 |
| GCGTGACA | 0.345 ± 0.023 |
| CTGCTATA | 0.00769 ± 0.006 |
| CCTAAGCA | -0.0497 ± 0.061 |
| GAAATGCA | -0.0739 ± 0.019 |
| GCGCTGCC | 0.0691 ± 0.025 |
| CAATCGAG | 0.0295 ± 0.067 |
| TCTGCTCA | 0.127 ± 0.027 |
| CAAAAGGG | -0.186 ± 0.085 |
| GAAAAGAC | -0.0794 ± 0.02 |
| CGCCTTAC | 0.264 ± 0.025 |
| CTAAGACA | -0.048 ± 0.012 |
| GACAAATC | 0.0909 ± 0.037 |
| GAAAAAAA | 0.0699 ± 0.098 |
| CCGGTTTC | 0.0518 ± 0.065 |
| AGGCCCTG | -0.0846 ± 0.015 |

| Sequence | PBM E-score of 8-mer |
| --- | --- |
| AGCAGTCC | -0.132 ± 0.093 |
| CGCGCTGA | 0.124 ± 0.052 |
| GACATTCA | 0.0899 ± 0.053 |
| ATAGATAC | -0.333 ± 0.018 |
| GTACACGA | -0.243 ± 0.064 |
| CCGTATGA | -0.135 ± 0.026 |
| TTACTGAA | -0.217 ± 0.03 |
| GTCATAAC | 0.0488 ± 0.059 |
| CCACCGGG | -0.0628 ± 0.011 |
| CATTTAAA | -0.257 ± 0.021 |
| CCGGTTTA | -0.198 ± 0.0051 |
| AGGCCAGA | -0.174 ± 0.045 |
| AAAAGTGC | 0.269 ± 0.044 |
| GAATCATA | -0.0556 ± 0.042 |
| CATCACTA | 0.0425 ± 0.0079 |
| AACCCGCG | 0.227 ± 0.049 |
| CGGTGACA | 0.326 ± 0.026 |
| AACATGTG | 0.274 ± 0.059 |
| CATAGCAC | 0.273 ± 0.0041 |
| CCCCGACG | -0.0866 ± 0.12 |
| CTAAACAG | 3e-05 ± 0.024 |
| CTAGACGC | -0.0851 ± 0.0066 |
| CTAAAGAG | -0.218 ± 0.035 |
| ATTACTTA | -0.154 ± 0.05 |
| CTTATTTC | 0.0455 ± 0.019 |

| Sequence | PBM E-score of 8-mer |
| --- | --- |
| CGTTACCA | 0.17 ± 0.018 |
| CCGTACCA | -0.0725 ± 0.034 |
| GGCAGGAC | -0.0928 ± 0.014 |
| GCCTCCCA | -0.0973 ± 0.04 |
| GAACGACA | 0.17 ± 0.023 |
| CACTGTAC | -0.0249 ± 0.028 |
| CATAATGC | -0.0613 ± 0.012 |
| ACGTTGCT | -0.0694 ± 0.043 |
| GATTTACA | 0.17 ± 0.015 |
| AGTTTTTG | 0.0492 ± 0.0037 |
| GCACCGAC | 0.0373 ± 0.046 |
| CACTACGA | -0.0143 ± 0.053 |
| GAAGCTGA | -0.0499 ± 0.083 |
| GGATTAGA | -0.284 ± 0.0059 |
| AGATAACG | 0.082 ± 0.055 |
| TCGATTCA | 0.114 ± 0.093 |
| CCTCATCA | -0.163 ± 0.083 |
| GTTACAGA | -0.00877 ± 0.033 |
| ATCTCTCG | 0.0419 ± 0.035 |
| CCCACGCC | 0.163 ± 0.014 |
| ATACGAAT | -0.2 ± 0.048 |
| GGGAATTA | -0.225 ± 0.0098 |
| GACGCCTC | 0.328 ± 0.017 |
| CACTCTAA | 0.0396 ± 0.076 |
| ACCGTTAC | 0.0751 ± 0.062 |

| Sequence | PBM E-score of 8-mer |
| --- | --- |
| GCAGTTAC | -0.00728 ± 0.006 |
| CATTATAG | -0.173 ± 0.051 |
| GTAAAGAA | 0.0185 ± 0.081 |
| CGAATGAC | 0.145 ± 0.038 |
| AAGAAGGC | 0.0046 ± 0.026 |
| CGTAGCTC | -0.189 ± 0.013 |
| CATTTAAG | -0.167 ± 0.035 |
| CACTACTA | -0.115 ± 0.029 |
| AAAGGCAA | -0.0491 ± 0.037 |
| ATTCGCAA | 0.29 ± 0.016 |
| CACCCATG | 0.153 ± 0.038 |
| GGGGTCTA | -0.219 ± 0.058 |
| GTATCCCA | -0.3 ± 0.018 |
| GCATAGCA | -0.0561 ± 0.049 |
| AAGTTTAT | -0.141 ± 0.074 |
| AGGTGCAC | 0.125 ± 0.049 |
| GACCTTGC | -0.153 ± 0.0056 |
| ACAGAAAA | -0.236 ± 0.1 |
| AGATCATA | -0.24 ± 0.0053 |
| CCGCAAGA | -0.0245 ± 0.026 |
| AATATAGA | 0.0573 ± 0.0045 |
| AAACTCCT | -0.113 ± 0.064 |
| AGTGCGTG | 0.144 ± 0.027 |
| GACCGAAC | -0.115 ± 0.11 |
| ATGAGACA | -0.0584 ± 0.063 |

| Sequence | PBM E-score of 8-mer |
| --- | --- |
| GCATCGCC | 0.0675 ± 0.09 |
| GGCAAAGA | -0.18459 ± 9.9e-05 |
| ACACGTCG | 0.372 ± 0.0071 |
| GAGTGGCC | 0.0111 ± 0.045 |
| AATGGTTC | -0.0605 ± 0.035 |
| AAGGTTAT | 0.0219 ± 0.0079 |
| AACCGAGT | -0.143 ± 0.071 |
| CAAAGCTG | 0.0347 ± 0.069 |
| CCTGCGTA | -0.0822 ± 0.008 |
| AACTGTTA | 0.284 ± 0.03 |
| AGTAGTAC | -0.311 ± 0.024 |
| CAATAAGC | -0.105 ± 0.057 |
| ATATGAGC | -0.256 ± 0.057 |
| GGCATACC | -0.154 ± 0.041 |
| CGTCGAGC | 0.0598 ± 0.075 |
| TAACCCAA | -0.0168 ± 0.03 |
| TCATGGCA | 0.0397 ± 0.019 |
| CCCAATTC | -0.184 ± 0.011 |
| AGTAAGGA | -0.116 ± 0.045 |
| GGCAGGGA | -0.182 ± 0.062 |
| ACGCGACC | 0.0679 ± 0.048 |
| CAATCGCG | 0.325 ± 0.016 |
| GTGACTTA | -0.0123 ± 0.039 |
| ACGCCTGA | 0.142 ± 0.019 |
| CATTTGGC | 0.0294 ± 0.017 |

| Sequence | PBM E-score of 8-mer |
| --- | --- |
| AAGGTAAG | -0.251 ± 0.08 |
| TATGCGCA | -0.327 ± 0.016 |
| ATGACTTC | -0.084 ± 0.07 |
| CGCAAGCC | -0.0145 ± 0.012 |
| ACTTTCCT | 0.126 ± 0.0083 |
| GACGGCAA | 0.057 ± 0.0096 |
| AAAACTGG | 0.0567 ± 0.055 |
| ACCTCGCC | 0.283 ± 0.026 |
| ACAGCACT | 0.15 ± 0.031 |
| TATACATA | -0.0604 ± 0.045 |
| CGAAGCAC | -0.0831 ± 0.01 |
| CGGGACAC | 0.153 ± 0.012 |
| CAATGTTA | -0.0418 ± 0.036 |
| AACTAATT | -0.221 ± 0.043 |
| CGTCGTTA | 0.125 ± 0.074 |
| GCTTTCTA | -0.0577 ± 0.0058 |
| CACACAAG | 0.179 ± 0.038 |
| GGCGACCA | -0.0782 ± 0.14 |
| GGCTGTTA | 0.161 ± 0.029 |
| GTAGAACA | -0.0945 ± 0.031 |
| ACAGCATG | 0.0974 ± 0.12 |
| AATAGCCT | -0.0813 ± 0.078 |

From the supplement of paper PMC4166925
